# Assay results taken from the supplement of paper PMC8728848.
# The other results are listed elsewhere or left out.
# B1: rCNL (Clitocybe nebularis), B2ZRS9 (protein)
# chain: SITPGTYNITNVAYTNRLIDLTGSNPAENTLIIGHHLNKTPSGYGNQQWTLVQLPHTTIYTMQAVNPQSYVRVRDDNLVDGAALVGSQQPTPVSIESAGNSGQFRIKIPNLGLALTLPSDANSTPIVLGEVDETSTNQLWAFESVSAV
# Legend:
# Assay in all cases: glycan array binding signal (z-score within array); higher = stronger binding
# Details in all cases: glycan notation: IUPAC condensed, linker removed
# [1] = target: Gal(b1-4)GlcNAc(b1-3)Gal(b1-4)GlcNAc(b1-3)Gal(b1-4)GlcNAc(b1-3)Gal(b1-4)GlcNAc(b1-3)Gal(b1-4)GlcNAc(b1-2)[Gal(b1-4)GlcNAc(b1-3)Gal(b1-4)GlcNAc(b1-3)Gal(b1-4)GlcNAc(b1-3)Gal(b1-4)GlcNAc(b1-3)Gal(b1-4)GlcNAc(b1-6)]Man(a1-6)[Gal(b1-4)GlcNAc(b1-3)Gal(b1-4)GlcNAc(b1-3)Gal(b1-4)GlcNAc(b1-3)Gal(b1-4)GlcNAc(b1-3)Gal(b1-4)GlcNAc(b1-2)Man(a1-3)]Man(b1-4)GlcNAc(b1-4)[Fuc(a1-6)]GlcNAc
# In short: (§1)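 The Consortium for Functional Glycomics database supplied 3228 glycan arrays, of which those lacking an available protein sequence were dropped. The binding signal, a within-array Z-score, was averaged across arrays of the same protein sequence and across linkers. Negative scores can be read as non-binding.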
# [2] = target: Gal(b1-4)GlcNAc(b1-3)Gal(b1-4)GlcNAc(b1-3)Gal(b1-4)GlcNAc(b1-3)Gal(b1-4)GlcNAc(b1-3)Gal(b1-4)GlcNAc(b1-3)Gal(b1-4)GlcNAc(b1-2)Man(a1-3)[Gal(b1-4)GlcNAc(b1-3)Gal(b1-4)GlcNAc(b1-3)Gal(b1-4)GlcNAc(b1-3)Gal(b1-4)GlcNAc(b1-3)Gal(b1-4)GlcNAc(b1-3)Gal(b1-4)GlcNAc(b1-2)Man(a1-6)]Man(b1-4)GlcNAc(b1-4)GlcNAc
# In short: as §1
# [3] = target: Gal(b1-4)GlcNAc(b1-3)Gal(b1-4)GlcNAc(b1-3)GalNAc
# In short: as §1
# [4] = target: Gal(b1-4)GlcNAc(b1-3)Gal(b1-4)GlcNAc(b1-3)[Gal(b1-4)GlcNAc(b1-3)Gal(b1-4)GlcNAc(b1-6)]GalNAc
# In short: as §1
# [5] = target: Gal(b1-4)GlcNAc(b1-3)Gal(b1-4)GlcNAc(b1-6)[Gal(b1-3)]GalNAc
# In short: as §1
# [6] = target: Gal(b1-4)GlcNAc(b1-3)Gal(b1-4)[Fuc(a1-3)]GlcNAc(b1-3)Gal(b1-4)[Fuc(a1-3)]GlcNAc
# In short: as §1
# [7] = target: Gal(b1-4)GlcNAc(b1-3)GalNAc
# In short: as §1
# [8] = target: Gal(b1-4)GlcNAc(b1-3)[Fuc(a1-3)GlcNAc(b1-6)]Gal(b1-4)Glc
# In short: as §1
# [9] = target: Gal(b1-4)GlcNAc(b1-3)[Gal(b1-4)GlcNAc(b1-6)]Gal(b1-4)GlcNAc
# In short: as §1
# [10] = target: Gal(b1-4)GlcNAc(b1-3)[Gal(b1-4)GlcNAc(b1-6)]GalNAc
# In short: as §1
# [11] = target: Gal(b1-4)GlcNAc(b1-3)[GlcNAc(b1-6)]Gal(b1-4)GlcNAc
# In short: as §1
# [12] = target: Gal(b1-4)GlcNAc(b1-6)Gal(b1-4)GlcNAc
# In short: as §1
# [13] = target: Gal(b1-4)GlcNAc(b1-6)GalNAc
# In short: as §1
# [14] = target: Gal(b1-4)GlcNAc(b1-6)[Gal(b1-3)]GalNAc
# In short: as §1
# [15] = target: Gal(b1-4)GlcNAc(b1-6)[Gal(b1-4)GlcNAc(b1-3)]GalNAc
# In short: as §1
# Gal(b1-4)GlcNAc6P = target: Gal(b1-4)GlcNAc6P
# In short: as §1
# Gal(b1-6)Gal = target: Gal(b1-6)Gal
# In short: as §1
# Gal3S(b1-3)GalNAc = target: Gal3S(b1-3)GalNAc
# In short: as §1
# Gal3S(b1-3)GlcNAc = target: Gal3S(b1-3)GlcNAc
# In short: as §1
# [16] = target: Gal3S(b1-3)[Fuc(a1-4)]GlcNAc
# In short: as §1
# Gal3S(b1-4)Glc = target: Gal3S(b1-4)Glc
# In short: as §1
# Gal3S(b1-4)Glc6S = target: Gal3S(b1-4)Glc6S
# In short: as §1
# Gal3S(b1-4)GlcNAc = target: Gal3S(b1-4)GlcNAc
# In short: as §1
binder,measurement,setting,value
B1,glycan array binding signal (z-score),[1],-0.182
same,glycan array binding signal (z-score),[2],-0.08
same,glycan array binding signal (z-score),[3],-0.058
same,glycan array binding signal (z-score),[4],0.003
same,glycan array binding signal (z-score),[5],-0.049
same,glycan array binding signal (z-score),[6],-0.082
same,glycan array binding signal (z-score),[7],-0.268
same,glycan array binding signal (z-score),[8],-0.192
same,glycan array binding signal (z-score),[9],-0.1
same,glycan array binding signal (z-score),[10],-0.001
same,glycan array binding signal (z-score),[11],-0.189
same,glycan array binding signal (z-score),[12],-0.257
same,glycan array binding signal (z-score),[13],0.128
same,glycan array binding signal (z-score),[14],-0.272
same,glycan array binding signal (z-score),[15],-0.199
same,glycan array binding signal (z-score),Gal(b1-4)GlcNAc6P,-0.224
same,glycan array binding signal (z-score),Gal(b1-6)Gal,-0.211
same,glycan array binding signal (z-score),Gal3S(b1-3)GalNAc,-0.3
same,glycan array binding signal (z-score),Gal3S(b1-3)GlcNAc,-0.176
same,glycan array binding signal (z-score),[16],0.743
same,glycan array binding signal (z-score),Gal3S(b1-4)Glc,-0.28
same,glycan array binding signal (z-score),Gal3S(b1-4)Glc6S,-0.261
same,glycan array binding signal (z-score),Gal3S(b1-4)GlcNAc,-0.174
